Experimental data from PubChem BioAssay AID2147 (National Center for Advancing Translational Sciences (NCATS), 2009).
Several values for one entry are separate records, joined by “and”; a condition that tells them apart may be missing. Identical values can stand only once. In all, about 230,000 compounds went through this assay and about 3,600 (1.6%) were called active. The inconclusive results got no clear call from the source; some entries with a clear call stand among them for comparison. The call rests on the fitted dose curve; in most records, active means well fitted inhibition curve with a large enough effect (not every such curve was filed as active); inconclusive means small, poorly fitted or top-dose-only effect, or another doubt; inactive means no such curve, though single readings can be large or run the other way. Potencies beside an inconclusive call are fits to weak or partial responses and may not hold up.

Target: Lysine-specific demethylase 4E (Homo sapiens) (UniProt B2RXH2)
UniProt B2RXH2, sequence (B2RXH2 whole entry, looked up, the tested form may be a part): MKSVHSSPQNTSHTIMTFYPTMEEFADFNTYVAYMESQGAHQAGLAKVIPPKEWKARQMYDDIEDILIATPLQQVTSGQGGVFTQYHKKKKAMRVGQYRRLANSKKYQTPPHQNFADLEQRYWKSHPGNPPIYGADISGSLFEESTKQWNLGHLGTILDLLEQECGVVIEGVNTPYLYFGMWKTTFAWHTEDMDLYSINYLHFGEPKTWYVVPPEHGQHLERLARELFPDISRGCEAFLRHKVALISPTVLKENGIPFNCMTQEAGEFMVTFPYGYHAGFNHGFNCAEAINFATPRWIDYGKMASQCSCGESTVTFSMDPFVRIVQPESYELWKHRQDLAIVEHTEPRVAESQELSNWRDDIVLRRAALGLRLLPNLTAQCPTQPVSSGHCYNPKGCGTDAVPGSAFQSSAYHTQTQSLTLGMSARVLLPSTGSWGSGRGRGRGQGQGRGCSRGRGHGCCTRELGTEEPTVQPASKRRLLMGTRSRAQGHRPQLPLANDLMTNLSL
Assay: qHTS Assay for Inhibitors of Human Jumonji Domain Containing 2E (JMJD2E)
Details: JMJD2E catalytic domain, FDH-coupled NADH fluorescence (FDH is formaldehyde dehydrogenase); series mostly up to 57.1 µM
Further: nearly all actives have a fitted effect of over 50% in size.
Potency means the concentration at half of the fitted maximal effect; tags describe the fitted curve by direction and shape.

| Structure (SMILES) | Potency |
| --- | --- |
| O=C1c2ccccc2C(=O)N1CC1c2ccccc2CCN1C(=O)CN1CCOCC1 (configuration not stated) | inactive |
| O=C(Nc1nc2c(s1)CN(Cc1ccccc1)CC2)C1CCCC1 | inconclusive: 35.5 µM [inhibitor, single point] |
| COCCNc1nc(-c2ccccc2CN(C)C)nc2ccccc12 | inactive |
| Cc1ccc(S(=O)(=O)NNC(=O)c2snnc2C)cc1 | inactive |
| CCOc1ccc2[nH]c(=O)c(CN(CCO)C(=O)CC)cc2c1 | inconclusive: 31.6 µM [inhibitor, partial curve] |
| Cc1ccc(Cn2ccc(NC(=O)c3cc4nc(-c5ccco5)cc(C(F)(F)F)n4n3)n2)cc1 | inconclusive: 39.8 µM [inhibitor, single point] |
| CSc1n[nH]c(=S)n1N | active: 31.6 µM |
| O=C(NCCCN1CCOCC1)c1sc2ccccc2c1Cl | inactive |
| Cc1ccc2[nH]c(=O)c(CN(Cc3ccccc3)C(=S)NCCCN(C)C)cc2c1 | inconclusive: 39.8 µM [inhibitor, single point] |
| COC(=O)c1ccc(C2CC(=O)Nc3cc(OC)c(OC)c(OC)c32)cc1 (configuration not stated) | inconclusive: 39.8 µM [inhibitor, single point] |
| C=CCn1c(-c2cccs2)nc2nc3ccccc3nc21 | inconclusive: 28.2 µM [inhibitor, partial curve] |
| CN1/C(=C\C(=O)C(F)F)C(C)(C)c2ccccc21 | inconclusive: 39.8 µM [inhibitor, single point] |
| Nc1cc(-c2ccc(Cl)cc2)nn1-c1ccccc1 | inconclusive: 35.5 µM [inhibitor, single point] |
| NCCNS(=O)(=O)c1cccc2cnccc12 | inactive |
| O=C(CNC(=O)c1ccco1)N/N=C/c1ccc(O)c([N+](=O)[O-])c1 | inactive |
| CC(=O)Nc1cccc(C(=O)OC(C(=O)c2ccc(C)cc2)c2ccccc2)c1 (configuration not stated) | inactive |
| O=C(CSc1ccc(Cl)cc1)Nc1cccc(-c2nnc(-c3ccco3)o2)c1 | inconclusive: 31.6 µM [inhibitor, single point] |
| CN1CCN(c2ccc(NC(=O)c3ccc(-c4ccc(Br)cc4)o3)cc2)CC1 | inactive |
| O=C(CSc1nc2ccccc2s1)Nc1cc(S(=O)(=O)N2CCOCC2)ccc1Cl | inactive |
| CCN1CCCC1CNCc1cccc(OC)c1OCc1ccccc1F (configuration not stated) | inactive |
| CCC(C)(C)n1nnnc1CN(Cc1cccs1)Cc1cc2cc(OC)ccc2[nH]c1=O | inconclusive: 35.5 µM [inhibitor, single point] |
| CSc1nc2ccccc2s1 | inactive |
| CCCc1cc(=O)[nH]c(SCC)n1 | inactive |
| COc1ccc(C(=O)COC(=O)c2ccccc2NS(=O)(=O)c2ccc(O)c([N+](=O)[O-])c2)cc1 | inactive |

| Structure (SMILES) | Potency |
| --- | --- |
| CCSc1nnc(NC(=O)C(C(F)(F)F)C(F)(F)F)s1 | inactive |
| Cc1nn(-c2ccccn2)c2nc(-c3cccs3)cc(C(=O)N3CCOCC3)c12 | inconclusive: 22.4 µM [inhibitor, partial curve] |
| Cc1cnc(CNc2ncnc3ccc(-c4ccccc4C#N)cc23)cn1 | inconclusive: 11.2 µM [inhibitor, partial curve] |
| Oc1oc(-c2ccccc2)nc1C=Nc1cccc2ccccc12 | inconclusive: 25.1 µM [inhibitor, partial curve] |
| CCCCCn1c(=O)[nH]c2cc(C(=O)NCCN(CC)CC)ccc2c1=O | inconclusive: 31.6 µM [inhibitor, partial curve] |
| COc1ccc(/C=C/C(=O)NCC(=O)N2CCC(N(C)CCN3CCOCC3)CC2)cc1OC | inconclusive: 28.2 µM [inhibitor, partial curve] |
| CCSC1=NSC2=NC(=O)/C(=C\c3coc4ccccc4c3=O)C(=N)N12 | inconclusive: 25.1 µM [inhibitor, partial curve] |
| COCCNC(=O)Cn1c(=O)n(C)c2ccccc21 | inactive |
| O=C(NCCCO)c1cc2ccccc2[nH]1 | inconclusive: 28.2 µM [inhibitor, partial curve] |
| O=C(c1cc(C2CC2)nc2ccc(Br)cc12)N1N=C(C(F)F)CC1(O)C(F)F (configuration not stated) | inconclusive: 35.5 µM [inhibitor, single point] |
| C/C(=C\c1ccc(C(=O)O)cc1)c1ccc2c(c1)C(C)(C)CCC2(C)C | inconclusive: 8.91 µM [inhibitor, single point] and inconclusive: 28.2 µM [inhibitor, partial curve] |
| Cc1ccc(N2C(=O)C3N=NN(CC(=O)N4N=C(c5ccccc5)CC4c4ccccc4)C3C2=O)cc1 (configuration not stated) | inconclusive: 31.6 µM [inhibitor, partial curve] |
| Cc1cc(NC(=O)c2cnn3c(C(F)F)cc(-c4ccccc4)nc23)no1 | inconclusive: 35.5 µM [inhibitor, single point] |
| COC(=O)C1=C(N)Oc2cc(C)[nH]c(=O)c2C1c1ccccc1OC (configuration not stated) | inactive |
| CCCCNc1nc2sc3c(c2c(=O)n1-c1cccc(Cl)c1)CCN(C)C3 | inconclusive: 25.1 µM [inhibitor, partial curve] |
| CCOc1ccc(Cl)cc1/C=N/NC(=O)CNC(=O)c1ccccc1 | inconclusive: 39.8 µM [inhibitor, single point] |
| N/C(=N\N=C\c1ccc([N+](=O)[O-])cc1)c1nonc1N | inactive |
| CCOC(=O)c1cc(CC)sc1NC(=O)C(c1ccccc1)c1ccccc1 | inconclusive: 39.8 µM [inhibitor, single point] |
| Cc1ccc(Sc2nc3ccc(C)cn3c(=O)c2/C=N/O)cc1 | inconclusive: 39.8 µM [inhibitor, single point] |
| O=C(NCc1csc(-c2cccs2)n1)Nc1ccc(C(F)(F)F)cc1 | inconclusive: 28.2 µM [inhibitor, partial curve] |
| CCC(Oc1ccccc1)C(=O)NC1CCSC1=O (configuration not stated) | inactive |
| O=C(O)c1c[nH]c2ccc(S(=O)(=O)N3CCN(c4ccc(F)cc4)CC3)cc2c1=O | inconclusive: 25.1 µM [inhibitor, single point] |
| O=C(NCCC(=O)N1CCN(c2ncccn2)CC1)c1ccccc1 | inconclusive: 31.6 µM [inhibitor, single point] |
